Experimental data: article PMC8771551
No constants are given. Whether binding was seen depends on the method and setting. For part of these data: Binding seen in cells or lysates may run through a third protein. Some entries that bind do so weakly or less than the wild type. For part of these data: Where a sequence is shown, tags or fusion partners need not be part of it. One block for each molecule: values may come before it.

Amino acid sequences for entries named in this document (tags omitted). A change or cut given only in a name is not applied to a line headed by its entry. Residues count along the entry.
UniProt Q13887: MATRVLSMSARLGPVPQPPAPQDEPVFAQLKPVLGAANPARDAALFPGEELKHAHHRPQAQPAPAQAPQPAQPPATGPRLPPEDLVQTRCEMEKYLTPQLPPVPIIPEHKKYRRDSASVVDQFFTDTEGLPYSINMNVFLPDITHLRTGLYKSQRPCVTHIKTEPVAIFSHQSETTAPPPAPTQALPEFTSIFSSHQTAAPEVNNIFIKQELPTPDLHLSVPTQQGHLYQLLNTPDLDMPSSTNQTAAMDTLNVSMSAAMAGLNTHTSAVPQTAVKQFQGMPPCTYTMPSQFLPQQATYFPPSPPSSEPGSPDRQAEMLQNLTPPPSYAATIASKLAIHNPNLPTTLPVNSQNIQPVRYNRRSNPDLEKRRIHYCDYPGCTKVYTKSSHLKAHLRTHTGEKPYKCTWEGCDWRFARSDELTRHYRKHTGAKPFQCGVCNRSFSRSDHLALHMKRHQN
Flag-KLF5-ΔC: residues 1-245 of Q13887
UniProt Q13418: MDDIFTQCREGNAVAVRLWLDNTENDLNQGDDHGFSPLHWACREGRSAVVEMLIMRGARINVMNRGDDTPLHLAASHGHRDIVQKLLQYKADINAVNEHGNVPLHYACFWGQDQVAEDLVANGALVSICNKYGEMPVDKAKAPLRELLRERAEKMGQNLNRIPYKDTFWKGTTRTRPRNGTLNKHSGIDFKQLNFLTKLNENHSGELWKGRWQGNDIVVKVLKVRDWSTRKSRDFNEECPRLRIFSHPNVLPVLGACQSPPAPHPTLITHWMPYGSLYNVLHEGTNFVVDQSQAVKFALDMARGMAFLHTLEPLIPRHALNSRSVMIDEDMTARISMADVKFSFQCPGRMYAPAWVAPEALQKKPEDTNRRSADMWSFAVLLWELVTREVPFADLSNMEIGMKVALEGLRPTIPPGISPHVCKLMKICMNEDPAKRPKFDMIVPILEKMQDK

Experiments:
[1] = target: T1, Flag-α-Catulin-ΔC (1-260) (UniProt Q9UBT7); assay: co-IP; CL1-0 cells cotransfected with HA-KLF5 full length and Flag-α-Catulin wild-type or fragments; anti-Flag immunoprecipitation, blot with anti-KLF5
T1 sequence: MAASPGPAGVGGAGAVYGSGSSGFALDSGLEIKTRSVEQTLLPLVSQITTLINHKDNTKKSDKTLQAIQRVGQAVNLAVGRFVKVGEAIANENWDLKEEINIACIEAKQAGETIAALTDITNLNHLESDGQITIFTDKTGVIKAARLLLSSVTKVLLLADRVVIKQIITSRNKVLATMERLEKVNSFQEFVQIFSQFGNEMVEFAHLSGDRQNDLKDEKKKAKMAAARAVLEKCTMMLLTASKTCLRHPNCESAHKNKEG

Flag-α-Catulin wild-type = target: T2, Flag-α-Catulin wild-type (UniProt Q9UBT7); assay: as above
T2 sequence: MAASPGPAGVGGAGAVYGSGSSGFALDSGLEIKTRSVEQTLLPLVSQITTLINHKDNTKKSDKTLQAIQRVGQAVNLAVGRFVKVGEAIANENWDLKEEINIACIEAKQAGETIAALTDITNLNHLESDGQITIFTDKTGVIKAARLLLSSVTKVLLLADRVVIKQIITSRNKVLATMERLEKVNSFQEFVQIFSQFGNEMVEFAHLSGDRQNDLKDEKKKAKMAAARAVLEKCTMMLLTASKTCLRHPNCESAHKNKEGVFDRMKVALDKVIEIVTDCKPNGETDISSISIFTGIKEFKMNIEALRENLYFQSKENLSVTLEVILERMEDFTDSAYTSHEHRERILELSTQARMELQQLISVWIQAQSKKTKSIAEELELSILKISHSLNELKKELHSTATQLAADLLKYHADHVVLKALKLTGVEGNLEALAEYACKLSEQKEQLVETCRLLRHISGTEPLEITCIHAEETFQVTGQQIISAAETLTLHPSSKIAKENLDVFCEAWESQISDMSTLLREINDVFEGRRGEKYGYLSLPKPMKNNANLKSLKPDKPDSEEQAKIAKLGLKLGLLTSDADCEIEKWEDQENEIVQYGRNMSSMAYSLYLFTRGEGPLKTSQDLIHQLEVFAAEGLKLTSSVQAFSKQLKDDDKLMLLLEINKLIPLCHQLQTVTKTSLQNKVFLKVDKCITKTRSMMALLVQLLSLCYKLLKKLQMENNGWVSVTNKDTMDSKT

[2] = target: T3, endogenous α-Catulin (human (endogenous in CL1-5)) (UniProt Q9UBT7); assay: co-IP; α-Catulin immunoprecipitated from CL1-5 cells treated with 2 μM OSU-T315 (ILK inhibitor); Western blot
T3 sequence: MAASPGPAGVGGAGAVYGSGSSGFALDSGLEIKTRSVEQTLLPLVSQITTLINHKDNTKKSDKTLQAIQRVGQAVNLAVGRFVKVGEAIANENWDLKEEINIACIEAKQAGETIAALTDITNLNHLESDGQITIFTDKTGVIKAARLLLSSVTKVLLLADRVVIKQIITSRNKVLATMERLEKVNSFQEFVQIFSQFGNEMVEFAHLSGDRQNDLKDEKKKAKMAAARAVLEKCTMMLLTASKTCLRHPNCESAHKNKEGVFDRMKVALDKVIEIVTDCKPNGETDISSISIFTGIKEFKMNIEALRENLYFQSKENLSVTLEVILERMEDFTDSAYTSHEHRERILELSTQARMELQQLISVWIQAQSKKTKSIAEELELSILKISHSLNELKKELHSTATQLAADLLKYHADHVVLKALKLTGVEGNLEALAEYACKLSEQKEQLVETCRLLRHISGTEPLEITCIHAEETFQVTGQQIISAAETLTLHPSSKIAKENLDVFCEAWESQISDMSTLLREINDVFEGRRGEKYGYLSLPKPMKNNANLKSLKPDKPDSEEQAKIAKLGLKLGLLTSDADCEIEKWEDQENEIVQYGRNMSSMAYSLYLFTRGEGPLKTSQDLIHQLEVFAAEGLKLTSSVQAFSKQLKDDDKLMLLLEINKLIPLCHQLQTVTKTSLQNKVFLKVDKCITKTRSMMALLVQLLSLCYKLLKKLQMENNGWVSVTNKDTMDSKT

[3] = target: T3, endogenous α-Catulin (human (endogenous in CL1-5)); assay: co-IP; endogenous proteins; CL1-5 lysate (M-PER), 1 mg lysate with 1 μg anti-α-Catulin or anti-KLF5 antibody, protein A magnetic beads, 4 °C; Western blot
[4] = target: T4, α-Catulin (yeast two-hybrid bait) (UniProt Q9UBT7); assay: two-hybrid; S. cerevisiae strain AH109; α-Catulin as bait; growth on histidine-deficient plates and β-galactosidase activity
T4 sequence: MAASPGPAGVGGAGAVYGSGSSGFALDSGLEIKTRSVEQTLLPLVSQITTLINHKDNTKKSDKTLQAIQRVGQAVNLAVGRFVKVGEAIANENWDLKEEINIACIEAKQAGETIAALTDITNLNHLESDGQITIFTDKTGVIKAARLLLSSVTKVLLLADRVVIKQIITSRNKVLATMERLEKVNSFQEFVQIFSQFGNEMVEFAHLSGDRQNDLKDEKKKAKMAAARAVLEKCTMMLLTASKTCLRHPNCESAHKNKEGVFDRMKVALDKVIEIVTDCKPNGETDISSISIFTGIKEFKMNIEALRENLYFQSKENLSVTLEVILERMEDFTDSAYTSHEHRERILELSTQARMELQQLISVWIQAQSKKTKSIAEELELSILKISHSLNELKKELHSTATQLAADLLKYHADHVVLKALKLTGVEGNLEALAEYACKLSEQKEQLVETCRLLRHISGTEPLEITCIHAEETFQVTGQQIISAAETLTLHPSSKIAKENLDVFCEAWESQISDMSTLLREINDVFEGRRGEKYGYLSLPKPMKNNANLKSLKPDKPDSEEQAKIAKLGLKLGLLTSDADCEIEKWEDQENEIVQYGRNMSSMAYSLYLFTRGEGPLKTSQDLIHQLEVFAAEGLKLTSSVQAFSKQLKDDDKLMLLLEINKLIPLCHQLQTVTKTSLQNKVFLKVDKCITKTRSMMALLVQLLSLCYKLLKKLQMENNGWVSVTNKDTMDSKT

Flag-KLF5 wild-type = Flag-KLF5 wild-type (UniProt Q13887); assay: co-IP; CL1-0 cells cotransfected with α-Catulin-GFP and Flag-KLF5 wild-type or truncated mutants; anti-Flag immunoprecipitation, blot with anti-α-Catulin
Flag-KLF5-ΔC = Flag-KLF5-ΔC (UniProt Q13887); assay: as above

Molecule: HA-tagged full-length KLF5 (from UniProt Q13887 1-457)
binding [1]: binds | binding (Flag-α-Catulin wild-type): binds

Molecule: endogenous KLF5 (from UniProt Q13887 1-457)
binding [2]: no binding (condition: with 2 μM OSU-T315) | binding [3]: binds

Molecule: KLF5 (yeast two-hybrid prey) (from UniProt Q13887 1-457)
binding [4]: binds

The next lines start with results.

binding [3]: binds
Molecule: integrin-linked kinase (ILK), endogenous (from UniProt Q13418 1-452) (enzyme)
binding [2]: no binding (condition: with 2 μM OSU-T315)

binding (Flag-KLF5 wild-type): binds | binding (Flag-KLF5-ΔC): no binding
B1: GFP-tagged full-length α-Catulin (protein, UniProt Q9UBT7 1-734)
chain: MAASPGPAGVGGAGAVYGSGSSGFALDSGLEIKTRSVEQTLLPLVSQITTLINHKDNTKKSDKTLQAIQRVGQAVNLAVGRFVKVGEAIANENWDLKEEINIACIEAKQAGETIAALTDITNLNHLESDGQITIFTDKTGVIKAARLLLSSVTKVLLLADRVVIKQIITSRNKVLATMERLEKVNSFQEFVQIFSQFGNEMVEFAHLSGDRQNDLKDEKKKAKMAAARAVLEKCTMMLLTASKTCLRHPNCESAHKNKEGVFDRMKVALDKVIEIVTDCKPNGETDISSISIFTGIKEFKMNIEALRENLYFQSKENLSVTLEVILERMEDFTDSAYTSHEHRERILELSTQARMELQQLISVWIQAQSKKTKSIAEELELSILKISHSLNELKKELHSTATQLAADLLKYHADHVVLKALKLTGVEGNLEALAEYACKLSEQKEQLVETCRLLRHISGTEPLEITCIHAEETFQVTGQQIISAAETLTLHPSSKIAKENLDVFCEAWESQISDMSTLLREINDVFEGRRGEKYGYLSLPKPMKNNANLKSLKPDKPDSEEQAKIAKLGLKLGLLTSDADCEIEKWEDQENEIVQYGRNMSSMAYSLYLFTRGEGPLKTSQDLIHQLEVFAAEGLKLTSSVQAFSKQLKDDDKLMLLLEINKLIPLCHQLQTVTKTSLQNKVFLKVDKCITKTRSMMALLVQLLSLCYKLLKKLQMENNGWVSVTNKDTMDSKT
